Measured values: paper PMC10668032
The list shows a part of the results. At the low end of the ranking the order means little.

These sequences were tested against SIX1 homeodomain (reference allele) (UniProt Q15475) (assay: universal protein binding microarray). Details: Universal all-10-mer PBM (8x60K, AMADID 030236), 300 nM GST-tagged protein, Alexa Fluor 488 anti-GST; buffer, salt, pH and temperature not stated; high values mean tight binding; most listed sequences are background and not binding sites; double strand, one strand shown.

Sequence	binding signal
AACTCGAG	-0.102 E-score
AACCCGTC	-0.0578 E-score
CTACAATC	0.074 E-score
CGCTCCCA	-0.189 E-score
ACCCGGGC	-0.0233 E-score
AACCTTAC	-0.109 E-score
GCGATTAA	0.103 E-score
GCTACAGA	-0.147 E-score
CAAGGCAC	-0.15 E-score
GTGGCAGA	-0.239 E-score
ACCTGCAA	-0.0559 E-score
CATGCCCA	-0.205 E-score
CGGTCGAA	-0.241 E-score
ACTCGTTC	-0.163 E-score
GACTCCAA	-0.195 E-score
ACAACAAA	-0.238 E-score
GAGTGCGA	-0.116 E-score
ACTGTCCC	-0.128 E-score
CGTCGTTA	-0.149 E-score
AACAACCT	-0.278 E-score
CGAGTTTA	-0.155 E-score
CACCCATG	0.0507 E-score
GAACTGAA	-0.174 E-score
AATTGATA	0.344 E-score
TATCTAAA	0.301 E-score

Sequence	binding signal
GTGTACAC	0.222 E-score
CGCCGTTC	-0.0508 E-score
GACCCGAC	0.086 E-score
AGTGGTCG	-0.188 E-score
ACCAAGCC	-0.0929 E-score
ATTCCAGG	-0.0225 E-score
GATGTGCC	-0.176 E-score
CTCACACA	-0.12 E-score
AAGGTAGA	0.0599 E-score
CAACACAC	-0.0362 E-score
GAGTCTTA	-0.186 E-score
GATACTCA	0.429 E-score
ATTCATCG	-0.0402 E-score
ACTTGTCG	-0.0931 E-score
AATTGTGT	-0.0358 E-score
AGATTACC	0.0512 E-score
CCCACAAC	-0.106 E-score
GGCAACGA	0.0646 E-score
CACCTTAA	0.0259 E-score
CTCTACCC	0.0702 E-score
CACATATA	0.165 E-score
CGTTCTAC	-0.149 E-score
AGATGGCT	0.0116 E-score
GGACGAAA	-0.254 E-score
CGCGCAAG	-0.0149 E-score

Sequence	binding signal
GTACCGAC	-0.0272 E-score
AGCTAACA	-0.0587 E-score
CGTAGGAG	-0.0882 E-score
ACGTGGCC	-0.154 E-score
ATCGGAGC	0.0936 E-score
ATTTACGA	-0.0498 E-score
CGAAGTTA	-0.322 E-score
CCGAGATC	0.294 E-score
TACCAGGA	0.165 E-score
TCATTCAA	-0.0677 E-score
GAAGCGTA	0.0129 E-score
TGGACGAA	-0.201 E-score
GACCGTCC	-0.121 E-score
TGACGAAA	-0.183 E-score
ATCTTCGG	0.0796 E-score
AGTTTATA	0.0641 E-score
GCGTTAGC	-0.199 E-score
CAACGCCG	-0.0993 E-score
CGCCACAC	-0.0535 E-score
GACGTGAC	-0.24 E-score
TCCATTAA	0.0579 E-score
GTGGTTAA	-0.213 E-score
CGGTCGAG	-0.0515 E-score
GTCCACCA	-0.157 E-score
GGATTTAA	-0.0649 E-score

Sequence	binding signal
ATGACATA	0.00711 E-score
AGAAACCC	0.0543 E-score
CGAGCGGA	0.061 E-score
CATTGCGC	-0.279 E-score
AAGCGAGC	-0.169 E-score
CCTCTGTA	-0.0182 E-score
ACGCAAAA	-0.129 E-score
ATTAGTCC	0.0194 E-score
TGAACCCA	0.0214 E-score
GACCTCGC	-0.191 E-score
ATAACGAT	0.221 E-score
GGCTTGAC	-0.155 E-score
AATATAGC	0.0273 E-score
CATTACGG	-0.121 E-score
ACTTCACC	-0.077 E-score
GAACAAGC	-0.202 E-score
CCGACGAG	-0.0344 E-score
AGTCCATG	-0.193 E-score
ATAACTTC	-0.16 E-score
CGCTCGCC	-0.0508 E-score
TACCCCGA	0.261 E-score
TATCACAA	0.385 E-score
AGGAGTCG	-0.197 E-score
AACTGTAC	-0.211 E-score
TCACGGCA	-0.0582 E-score

Sequence	binding signal
ACAATCAA	-0.176 E-score
CAAGCCCC	-0.0421 E-score
GCAGTGAA	-0.183 E-score
AACGGCTT	-0.322 E-score
GGTTATTA	0.0464 E-score
ATCCAATC	0.222 E-score
ACTTTGCA	-0.0812 E-score
ACAGGCGG	0.0614 E-score
AAAAGGTC	-0.309 E-score
CATCGTAG	0.00944 E-score
CGCATTCA	-0.219 E-score
AGCCCTCG	-0.111 E-score
CCGACTAG	-0.144 E-score
AGGTGCGC	-0.241 E-score
ATCGACTC	0.0791 E-score
AGCGAACT	-0.302 E-score
GCAGCTAC	-0.191 E-score
CGATGTTC	0.0122 E-score
AGACGACA	0.0274 E-score
CAGGAGGC	-0.13 E-score
AGATTTCA	-0.126 E-score
ATGGCGTG	-0.0766 E-score
AAACGGTA	0.14 E-score
CTTCTCTA	-0.177 E-score
ATGTGAGG	0.061 E-score

Sequence	binding signal
ACAGTATG	-0.039 E-score
AAGGGGGC	-0.033 E-score
ACAATTAT	-0.0266 E-score
AGTCTCGG	0.0952 E-score
ACAACTAT	-0.069 E-score
AGTTTCAG	-0.265 E-score
GCTGCCAA	-0.204 E-score
CTAGAACC	-0.0929 E-score
CAGGCAGA	0.0477 E-score
ACTTCCTA	-0.0569 E-score
GTTAGCCA	-0.15 E-score
AAGGAGCG	-0.0914 E-score
AGTTTATG	-0.118 E-score
ACTGGACG	-0.0844 E-score
CGCTGGCA	0.0153 E-score
AGCTGGTA	0.0486 E-score
TACTCTGA	0.0508 E-score
GCGGGAGA	0.0155 E-score
CCACCGAA	-0.0521 E-score
ATCAGTTC	0.0601 E-score
GTATCTAA	0.374 E-score
CCTTACAA	-0.175 E-score
GATTTGGA	-0.0655 E-score
CCTGGCAG	-0.121 E-score
AGTTTTTA	-0.185 E-score

Sequence	binding signal
AACACGTG	-0.0953 E-score
AACGACCT	-0.101 E-score
AGTGTTGA	-0.0781 E-score
CGTCATGC	-0.0345 E-score
GCGGGACA	-0.0765 E-score
GCATAGTA	0.102 E-score
CTAGGCAG	-0.299 E-score
GCTCCACA	-0.138 E-score
AGTCTGTG	-0.16 E-score
AACTGGCT	-0.151 E-score
AGAGTCTC	-0.136 E-score
CCTTTAAC	-0.094 E-score
AATGACAA	-0.16 E-score
CACTTCCG	-0.0971 E-score
AGATATAT	0.337 E-score
AGGTTGGG	-0.212 E-score
ATGTATGC	-0.081 E-score
CGCTGCGA	-0.15 E-score
GCAGATCC	0.272 E-score
GTTTTATA	0.0828 E-score
AGTCTTGC	-0.208 E-score
AAGGCTCG	-0.135 E-score
